For 22 molecules, binding signal results are on record in article PMC12136788.

The list shows a part of the results.

First the molecules themselves.
T1: UNK ZnF1-6 (called full-length) (human, UniProt Q9C0B0 30-357)
T1 sequence: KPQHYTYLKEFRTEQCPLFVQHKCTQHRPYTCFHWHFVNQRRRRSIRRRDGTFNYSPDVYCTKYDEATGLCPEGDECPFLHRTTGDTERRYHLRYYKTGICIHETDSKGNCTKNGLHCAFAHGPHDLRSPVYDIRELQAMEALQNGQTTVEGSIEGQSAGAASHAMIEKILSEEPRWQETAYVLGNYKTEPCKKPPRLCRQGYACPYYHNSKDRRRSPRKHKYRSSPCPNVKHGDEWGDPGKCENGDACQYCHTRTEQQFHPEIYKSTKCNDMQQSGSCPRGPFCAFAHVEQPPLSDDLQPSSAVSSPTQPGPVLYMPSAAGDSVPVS

B1: chrX:30828625:30828726:-|3pUTR|ENSG00000157625|msi1|total|mutant (ssRNA)
RNA: GGGAGUUCUACAGUCCGACGAUCUUCUUGUUUCUUGUAAGAGGUUUCUUUAAAAUGACCCGUUUGAUGUAUCUGGUAACAUACCGGCCUGACUAUACAUUUUACAUUAUUUCGCUAUUUUGUAAACUGGGAUUUCCGAAAGCACAACAGAGGAUUGAGCAUCA
B2: ENSG00000070961:be:win_5851|3pUTR|ENSG00000070961|bound_else_gene|NA|bound_elsewhere_windowed (ssRNA)
RNA: GGGAGUUCUACAGUCCGACGAUCAUGAAUGUAAUUACCAAAAGAUUUAGAAGUGCAUGUGCUUUGGAGGAUUUGUAUUGAGCUUUUACAGUAUUCAUUUUUCAACUCAAGGCAAUGGCUUUCUACACCAACUCUAAUCCAUAACAACAGAGGAUUGAGCAUCA
B3: chr12:89642165:89642281:-|CDS|ENSG00000070961|unk|total|mutant (ssRNA)
RNA: GGGAGUUCUACAGUCCGACGAUCGCCAAAAACCUUUCUUCAAUCCGUAUGGGAAGCAUUACAAGAUGUCACUUUAAUUAUAUCCGAAAUUGCAGCCACCGUAUCAUUGGGCCUUUCUUUUUAUCAGCCUCCAGAAGGGGAUAACAACAGAGGAUUGAGCAUCA
B4: ENSG00000107863:be:win_4701|CDS|ENSG00000107863|bound_else_gene|NA|bound_elsewhere_windowed (ssRNA)
RNA: GGGAGUUCUACAGUCCGACGAUCCAGUCCAGAAACGAAACAUAGCGAGUUUUUGGCCAACGUCAGCACCAUCACCUCAGAUUAUUCCACCACAUCGUCUGCUACAUACUUGACUAGCCUGGACUCCAGUCGACUGAGCCCUGACAACAGAGGAUUGAGCAUCA
B5: chrX:12823584:12823685:+|3pUTR|ENSG00000101911|unk|total|mutant (ssRNA)
RNA: GGGAGUUCUACAGUCCGACGAUCUGACUUAAAGGUAAUCAUUUCAGCUAAGAUUAAAUUUAAAGCCUAAGAAUGUACCGAGCCCGUUUUAAAAUAAUGAUCUCAGAUUUUUAAAAAGGAUACCGGAACCUGCAUUGUCAUUCUCAACAGAGGAUUGAGCAUCA
B6: chr2:148946928:148947042:+|CDS|ENSG00000168280|unk|total|mutant (ssRNA)
RNA: GGGAGUUCUACAGUCCGACGAUCGAAUGAACACAGCUCCCGAAGUCACAGUAUCUUCCUGAUAAAUAUUAAACAAGAGAAUGCCGAGACUGAAAAAAAACUCAGUGGGAAACUUUAUUUGGUUGAUUUGGCUGGGAGCGAAAACAACAGAGGAUUGAGCAUCA
B7: ENSG00000136888:stop:overlap|stop_codon|ENSG00000136888|stop_codon|NA|stop_codon (ssRNA)
RNA: GGGAGUUCUACAGUCCGACGAUCUCUUGGCUUUUGUCUGUGACAUUCGGCCAGAAAUCCAUGAAAACUACCGCAUAAAUGGAUAGAAGAGAGAAGCACCUGUGCUGUGGAGUGGCAUUUUAGAUGCCCUCACGAAUAUGAAGCCAACAGAGGAUUGAGCAUCA
B8: chr18:67510860:67510961:-|3pUTR|ENSG00000171451|msi1|FALSE|bound_elsewhere (ssRNA)
RNA: GGGAGUUCUACAGUCCGACGAUCACUAAUAAUACUUACCAACCCACUUUGUGGAUAUGAAUCAGAAGAGUUUGUUUAUUCUUUAGUGUGUGUGUGUGUGUGCACGCGUGUAUGUGUUCAGUGUUGUUUGCACAGAGAGAUUGUCAACAGAGGAUUGAGCAUCA
B9: ENSG00000117139:stop:overlap|stop_codon|ENSG00000117139|stop_codon|NA|stop_codon (ssRNA)
RNA: GGGAGUUCUACAGUCCGACGAUCAUGAAUACUGUUUGUUUUUUGUUUUUCCUUCCAGAUUAGACUUUGGGGGAUUUCUUAUAUAGAAUAAAGGGCUUGAUUAUAUGUAGCCUCUAUCCUGGAGAAAGGUUAUGUAAUUUGGACCAACAGAGGAUUGAGCAUCA
B10: chr1:152032676:152032810:-|CDS|ENSG00000163191|unk|FALSE|unique (ssRNA)
RNA: GGGAGUUCUACAGUCCGACGAUCGGACCCUGGUGUCCUUGACCGCAUGAUGAAGAAACUGGACACCAACAGUGAUGGUCAGCUAGAUUUCUCAGAAUUUCUUAAUCUGAUUGGUGGCCUAGCUAUGGCUUGCCAUGACUCCUUCAACAGAGGAUUGAGCAUCA
B11: chr8:70573615:70573716:-|3pUTR|ENSG00000067167|msi1|FALSE|unique (ssRNA)
RNA: GGGAGUUCUACAGUCCGACGAUCCAGUGUUCACAUCUUGUUCCCCAUUUCUCACUUGUGUCACCAGCUGUUUGUGCCAUUUUUAGUGUAAAAGUUGCAGACCUAUUAGAUCUGCAGUUUAAGUUGCCAUGCUGCUAGGAAAUUCAACAGAGGAUUGAGCAUCA
B12: chr12:110350735:110350839:+|3pUTR|ENSG00000174437|unk|FALSE|unique (ssRNA)
RNA: GGGAGUUCUACAGUCCGACGAUCUACAGUUUGCUUAUUUAUAAAUUCAUUAAAAACACUACAGGUGUUGAAUGGUUAAAAUGUAGGCCUCCAGUUCAUUUUCAGUUAUUUUCUGAGUGUGCAGACAGCUAUUUCGCACUGUAUCAACAGAGGAUUGAGCAUCA
B13: chr22:38864602:38864703:-|3pUTR|ENSG00000183741|msi1|total|mutant (ssRNA)
RNA: GGGAGUUCUACAGUCCGACGAUCGCUGUGCUGCCAUGGGCCCCUCCCUCAGAAGCACGUUGGCAGGAGGCCGAUCAGAACCCCCGCGCCUUUGGUCCUAAGAAUGGGAGGCUGCCUUCCUUCCCAAUCUCCCUGCCAGGGCCCCAACAGAGGAUUGAGCAUCA
B14: chr4:103158754:103158855:-|CDS|ENSG00000138778|msi1|total|mutant (ssRNA)
RNA: GGGAGUUCUACAGUCCGACGAUCGGAGAAAACACGUGAGGUUCAAGAAAGACUAAAUGAGAUGGAACAGCUGAAGGAACAAUCCGAAAACCGAGAUUCUACGCUGCAAACUGCCGAAAGGGAGAAAACACUGAUUACUGAGAACAACAGAGGAUUGAGCAUCA
B15: chr5:119149357:119149458:+|CDS|ENSG00000172869|msi1|FALSE|unique (ssRNA)
RNA: GGGAGUUCUACAGUCCGACGAUCCUGGGAGAGUACCAAAGUUGUGCCCCUUUCUAAAUUUGUACUAUUACGAAGUGUGGACCUAGUUUCUUCUGUAGAUGGCUCCCCACCUUUUCCUGUUUCUUUAUCGUGGGUCCGGGAUGGCAACAGAGGAUUGAGCAUCA
B16: chr3:194644572:194644746:-|CDS|ENSG00000041802|control|control|control (ssRNA)
RNA: GGGAGUUCUACAGUCCGACGAUCGCAUCAACACCAGCGACUCCUAGAGAACAAAAUGAACAGUGAUGAAAUAAAAAUGCAGCUAGGCAGAAAUAAAAAAGCAAAGCAGAUUGAAAAUAUCGUUGACAAAACUUUUUUCCAUCACAACAGAGGAUUGAGCAUCA
B17: chr12:104012598:104012803:-|three_prime_utr|ENSG00000120820|control|control|control (ssRNA)
RNA: GGGAGUUCUACAGUCCGACGAUCCUGAGAUGCUGGAAGCUAAGACGUUAACAAACGGACUCUGGAGGACACAAUUCAGUCCAUAGCAGUAUCUACACCUCAAUAAACUGUUCUAAAAGAGAGAGAGAGAGAAGGAAGUCACAUCAACAGAGGAUUGAGCAUCA
B18: chr6:144852070:144852171:+|3pUTR|ENSG00000152818|unk|FALSE|unique (ssRNA)
RNA: GGGAGUUCUACAGUCCGACGAUCAAGUCCUUAAUAGUUCUUGAAACUCCUAGUUGUUUUCUUGUUGAAAGCAGACACACAUUUAGUGCACGGCUUAUUUUACCUUUCGGGUGAAAGAUCAGAUGUUUUUAUACCCUUCACUUGCAACAGAGGAUUGAGCAUCA
B19: chr8:58583617:58583718:-|3pUTR|ENSG00000035681|unk|FALSE|unique (ssRNA)
RNA: GGGAGUUCUACAGUCCGACGAUCGUUUUGUCUUCCUAAUCUAUCACAAUUGCCACCCAUCGGGUUUUGGGUGUGUGUUUUCAUAGCGUGGUUACUUUCUAUAAUGCUGUACCCAGAUUCUAAGAACCUGGAGAAGGAUUAGCACAACAGAGGAUUGAGCAUCA
B20: chr21:43982464:43982545:+|3pUTR|ENSG00000160216|msi1_unk|FALSE|overlapping (ssRNA)
RNA: GGGAGUUCUACAGUCCGACGAUCCCCUGACGGUGGUAUCCAGUUAACUCAAAACCAACACACAGAGUGCAGGAAAAGACAAUUAGAAACUAUUUUUCUUAUUAACUGGUGACUAAUAUUAACAAAACUUGAGCCAAGAGUAAACAACAGAGGAUUGAGCAUCA
B21: chr15:32969305:32969406:-|CDS|ENSG00000248905|unk|total|mutant (ssRNA)
RNA: GGGAGUUCUACAGUCCGACGAUCCGAGCAUGCAAUGAUAACAGCGAGACCCGAAGAAACCAUUGAAAAUCUGAAACACGAGCCCGAACACAGAUGGCGAGGGGGUUGUGAAGAGAGGAAAGAUGUGUGCAUUUCCACCGAUGACAACAGAGGAUUGAGCAUCA
B22: chr7:83961326:83961382:-|CDS_3pUTR|ENSG00000075213|msi1_unk|total|mutant (ssRNA)
RNA: GGGAGUUCUACAGUCCGACGAUCAAACAGGAGGACCCACGAAUUUGAGAGGGCACCCAGGAGUGUCUGAGCUGCAUUACCUCCCGAAACCUCAAACAAGCCGAAACUUGCCCCGACAAUAACUGGAAAAACAAAUGCAAUAUACAACAGAGGAUUGAGCAUCA

The assay addresses T1, UNK ZnF1-6 (called full-length). The experiment in a line: nsRBNS (natural sequence RNA bind-n-seq); RBNS binding buffer (assumed for nsRBNS): 25 mM Tris pH 7.5, 150 mM KCl, 3 mM MgCl2, 0.01% Triton X-100, 500 ug/ml BSA, 20 U/ml SUPERase-In, 4 C; UNK is unkempt and MSI1 is Musashi-1; names of the RNAs are library labels; protein concentration not given here; high values mean tight binding.
Molecule B1 had a binding signal of 0.359 enrichment R.

Molecule B2 displayed a binding signal of 0.908 enrichment R. For B3 the value was 0.534 enrichment R; for B4, 0.577 enrichment R. For B5 the value was 0.334 enrichment R; for B6, 0.659 enrichment R. The result for B7 reads 0.81 enrichment R; that for B8, 0.366 enrichment R; that for B9, 0.658 enrichment R. B10 had a binding signal of 0.414 enrichment R. The result for B11 reads 0.536 enrichment R; that for B12, 0.716 enrichment R. B13 gave a binding signal of 1.16 enrichment R. The result for B14 reads 0.661 enrichment R; that for B15, 1.06 enrichment R. The result for B16 reads 0.393 enrichment R. For B17, the binding signal was 0.823 enrichment R.

The molecule B18 returned a binding signal of 0.969 enrichment R. For B19 the value was 0.381 enrichment R; for B20, 0.851 enrichment R; for B21, 0.672 enrichment R. For B22 the value was 0.585 enrichment R.
